Source: PubChem BioAssay AID504466 (National Center for Advancing Translational Sciences (NCATS), 2011)
Hit rate of the full screen: of about 330,000 compounds, about 4,200 (1.3%) were called active. This list was built around the results that the source calls inconclusive (neither active nor inactive); the mix of calls is not that of the screen. Calls follow the shape of the dose curve; as a rule, active = well fitted activation curve with a large enough effect; inconclusive = small, poorly fitted or top-dose-only effect; inactive = no such curve, though single readings can be large or run the other way. Where the call is inconclusive, the potency comes from a doubtful curve fit.

Experiment: qHTS screen for small molecules that induce genotoxicity in human embryonic kidney (HEK293T) cells expressing luciferase-tagged ELG1; also: nearly all actives have a fitted effect of over 60% in size
Conditions: HEK293T ELG1-luciferase reporter, luminescence, 16 h; series mostly up to 46 µM
Summary of the method: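 Genotoxic stress is detected as increased luminescence from luciferase-tagged ELG1 in HEK293T cells, measured with ONE-Glo after a 16 hr treatment at 37 °C.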
Potency is read from the fitted curve at half-maximal effect; tags tell the direction and shape of the fitted curve.

SMILES	Potency
Cc1ccc(N)cc1-n1c(C)ccc1C	inconclusive: 29.1 µM [activator, single point]
N/C(=N\OC(=O)c1ccco1)c1ccc(Cl)cc1	active: 7.3 µM
O=C(NC(=S)Nc1ccc2c(c1)OCCO2)c1ccco1	inconclusive: 5.17 µM [activator, partial curve]
C=C(C)C(=O)OC1(C(F)(F)F)Oc2cc(C)ccc2NC1=O (stereo not drawn)	inconclusive: 20.6 µM [activator, partial curve, poor fit]
C/C(=N/NC(=O)c1cc(C2CC2)[nH]n1)c1cccs1	inconclusive: 0.141 µM [activator, full curve, poor fit]
Cc1ccnc(NC(=O)Nc2ccc(Br)cc2Cl)c1	inconclusive: 0.517 µM [activator, full curve]
COc1cc2c(cc1OC)C(C)N(C(=O)/C=C/c1cc(OC)c(OC)c(OC)c1)CC2 (stereo not drawn)	inactive
COCCN(Cc1nc2ccccc2c(=O)[nH]1)C(=O)COc1ccccc1-c1ccccc1	inactive
S=C(Nc1ccc(Oc2ccccc2)cc1)NC1CCCCC1	inconclusive: 23.1 µM [activator, single point]
COc1cccc2oc3cc(C#CC4(O)CCCCC4)ccc3c(=O)c12	active: 0.411 µM
COc1cc(/C=N/Nc2nncc3ccccc23)cc(OC)c1OC	inconclusive: 4.11 µM [activator, full curve]
Cc1ccc(C)c(N2CCN(C(=O)CN3C(=S)NC(C)(C)CC3C)CC2)c1 (stereo not drawn)	inactive
Cn1c(=O)n(C)c2cc(/C=N/NC(=S)NCc3ccccc3)ccc21	inconclusive: 20.6 µM [activator, single point]
CCN(CC)S(=O)(=O)c1cc(C(=O)OCC(=O)Nc2ccc(-c3nc4ccc(C)cc4s3)cc2)ccc1F	active: 10.3 µM
O=S(=O)(NCc1ccncc1)c1ccc(S(=O)(=O)NCC2CCCO2)cc1 (stereo not drawn)	inactive
COc1ccc(O)c(C(=O)CC(=O)c2ccc(F)cc2)c1	inconclusive: 0.794 µM [activator, full curve, poor fit]
Cc1cccnc1Nc1nc(-c2ccccc2)cs1	active: 2.59 µM
Cc1n[nH]c(C)c1S(=O)(=O)Nc1ccc2c(c1)OCCO2	inconclusive: 23.1 µM [activator, partial curve, poor fit]
Cc1nc(NC(=O)c2ccccc2)sc1C	inconclusive: 4.61 µM [activator, full curve]
Clc1ccc(-c2nnn(Cc3nc4ccccc4s3)n2)cc1	inconclusive: 14.6 µM [activator, partial curve]
CCOc1ccc(C(N)=O)cc1OC	inactive
FC(F)Sc1ccc(NC(=S)NCC2CCCCC2)cc1	inconclusive: 16.4 µM [activator, single point]
C=CCN1C(=O)S/C(=C/c2ccsc2)C1=O	inconclusive: 25.9 µM [activator, partial curve, poor fit]
CC(=O)Nc1ccc(/C=C/c2nc(-c3ccccc3O)n[nH]2)cc1	inconclusive: 16.4 µM [activator, partial curve]

SMILES	Potency
COc1ccc(-c2noc(-c3ccc(Br)o3)n2)cc1	inconclusive: 16.4 µM [activator, partial curve]
CC(C)n1cc(/C=N/Nc2ccc(C(=O)O)cc2)c2ccccc21	inconclusive: 2.31 µM [activator, partial curve]
CCOC(=O)c1c(C)oc2cc(Br)c(O)c(Br)c12	inconclusive: 29.1 µM [activator, single point]
Cc1cnc(C(=O)NCc2ccc(F)cc2)cn1	inactive
Cn1c(=O)[nH]c(=O)c2c1nc(SCC(O)CCl)n2Cc1ccccc1 (stereo not drawn)	inconclusive: 18.3 µM [activator, partial curve, poor fit]
CC(=O)Oc1ccc(/C=C2/CCc3ccccc3C2=O)cc1	inconclusive: 3.66 µM [activator, single point]
COc1ccc(C(=O)N/C=C/n2cnc3cc(C(F)(F)F)ccc32)cc1	inactive
Cc1ccccc1Cn1c(=O)n(CC2CCC(C(=O)NCCc3ccccc3)CC2)c(=O)c2ccccc21 (stereo not drawn)	inconclusive: 20.6 µM [activator, partial curve, poor fit]
CCOC(=O)c1sc(NC(=O)CSc2nncn2C)nc1C	inconclusive: 18.3 µM [activator, single point]
CCCc1cc(=O)n2[nH]c(-c3ccc(Cl)cc3)cc2n1	inconclusive: 16.4 µM [activator, partial curve]
O=C(c1cc(-c2ccc(O)cc2)on1)N1CCCCCC1	inconclusive: 2.31 µM [activator, full curve]
O=C(N/N=C/c1cc(Cl)cc([N+](=O)[O-])c1O)c1cccc(S(=O)(=O)N2CCOCC2)c1	inactive
CC1Sc2ccc(S(=O)(=O)CCC(=O)NCc3ccc(Cl)cc3)cc2NC1=O (stereo not drawn)	inactive
N/C(=N\OC(=O)CC1CCCCC1)c1ccccn1	inconclusive: 25.9 µM [activator, partial curve, poor fit]
Cc1ccc(C(=O)N(C)Cc2ccccc2)cc1S(=O)(=O)N1CCOCC1	inactive
CC(=O)Nc1ccc(S(=O)(=O)Nc2ccc(S(=O)(=O)Nc3nc(C)cc(C)n3)cc2)cc1	inactive
Cc1ccc(-c2csc3nc(C)n(N)c(=O)c23)o1	active: 16.4 µM
CCc1sc(C(=O)N2CCc3ccccc32)cc1C	active: 1.83 µM
Cc1ccc(S(=O)(=O)N2CCCC2C(=O)Nc2nc3c(s2)CCCC3)cc1 (stereo not drawn)	inconclusive: 20.6 µM [activator, partial curve]
C=CCN=Cc1sc2ccc(OCC)cc2c1O	inconclusive: 13 µM [activator, partial curve]
O=C(c1ccc2c(c1)[nH]c(=S)n1c3ccccc3nc21)N1CCN(c2cccc(Cl)c2)CC1	inactive
O=C1c2ccccc2C(=O)N1CSc1nnc(Nc2ccccc2)s1	inactive
CC(=O)c1csc(Nc2ccccc2Cl)n1	inconclusive: 20.6 µM [activator, partial curve]
Cc1ccccc1NC(=O)Cn1nc(-c2ccc(Cl)s2)ccc1=O	inconclusive: 18.3 µM [activator, partial curve, poor fit]
